This is an account of results in PMC12136788.

T1: UNK ZnF1-6 (called full-length) (human, UniProt Q9C0B0 30-357)
T1 sequence: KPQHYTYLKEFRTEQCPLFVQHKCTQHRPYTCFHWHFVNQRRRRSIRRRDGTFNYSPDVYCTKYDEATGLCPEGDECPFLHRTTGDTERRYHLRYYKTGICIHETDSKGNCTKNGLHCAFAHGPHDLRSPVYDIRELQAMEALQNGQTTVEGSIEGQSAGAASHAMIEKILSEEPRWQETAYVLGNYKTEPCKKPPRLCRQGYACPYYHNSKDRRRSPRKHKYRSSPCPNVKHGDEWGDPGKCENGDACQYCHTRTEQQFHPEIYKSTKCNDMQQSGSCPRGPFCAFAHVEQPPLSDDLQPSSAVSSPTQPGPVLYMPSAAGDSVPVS

B1: chr10:103302795:103303961:-|three_prime_utr|ENSG00000156374|control|control|control (ssRNA)
RNA: GGGAGUUCUACAGUCCGACGAUCGUCUGCUUGUCCUUCAUUAUGGUCUUGUGGUUUCUCCUCUGAAGAUAACUUGAAGAUUCUAGGCACAUUAUGAGGAGGGAAACAAAGGAGGCUUCUGCAGGACUGCAUCUCACCAAAGAUCAACAGAGGAUUGAGCAUCA
B2: ENSG00000198589:be:win_2851|CDS|ENSG00000198589|bound_else_gene|NA|bound_elsewhere_windowed (ssRNA)
RNA: GGGAGUUCUACAGUCCGACGAUCUCUUCAACUUCAGUUCAAGCAGCCUCUGGCAUUAGAAGGGAUAUUAAUGUUUCAGUAGGAUCCCAGCAACCAGAUACGAAGGAUUCUCCUGUCUGUCCUCAUUUCACCACAAAUGGUAAUCAACAGAGGAUUGAGCAUCA
B3: chr18:31624441:31624542:-|3pUTR|ENSG00000118276|unk|total|mutant (ssRNA)
RNA: GGGAGUUCUACAGUCCGACGAUCAUUAAAUAUUCUAUUUUUAUAAAGAUAAAUACUCCGCCGAUAAAAACAAAUUUUAAGUUCCGUUUUCAGACACCGAAUUUCACUUUUGGAGGGGACCCUUGAAUGUCCGUUUCAUUCAAACAACAGAGGAUUGAGCAUCA
B4: chr12:109281406:109281799:-|CDS|ENSG00000139445|control|control|control (ssRNA)
RNA: GGGAGUUCUACAGUCCGACGAUCCGCCCUGCCGGACCUCAGCCCCAGCCCGCUCCCCCACCCCGCCAUGGGAAGGGCUCCUGUAGACUUCAUCAACAUCAGCACCGACAUGAACACUGAGGUGGAUGCCCUCGACCCGAGCAUCAACAGAGGAUUGAGCAUCA
B5: chr10:70435285:70435983:-|CDS|ENSG00000156574|control|control|control (ssRNA)
RNA: GGGAGUUCUACAGUCCGACGAUCCAGGCCUCUCUCCAAGUGGCUGAAGCACCCUGGGGCCCUGGAGAAGCAGAUGUCCAGGGUAGCUGGAGAGUGCUGGCCGCGGCCCCCCACACCGCCUGCCACCAAUGUGCUCCUUAUGCUCAACAGAGGAUUGAGCAUCA
B6: chr19:48404743:48404844:+|CDS|ENSG00000105464|unk|total|mutant (ssRNA)
RNA: GGGAGUUCUACAGUCCGACGAUCCGAGCAACAGCUUCAGGUCAUCUUUGAGGUGCUGGAGGAGUAUGACUGGACGUCCUUUGCCGCCGUGACCACUCGUGCCCCUGGCCACCGGGCCUUCCUGUCCUACAUUGAGGUGCUGACCAACAGAGGAUUGAGCAUCA
B7: chr16:57472207:57472321:-|3pUTR|ENSG00000125170|unk|FALSE|unique (ssRNA)
RNA: GGGAGUUCUACAGUCCGACGAUCUCAAACUUUUGGUUGUGUGGGGUUUUUUGUUGUUUUUUGGGUUUUGUUUUUUAAUACUUUAGGGUCCUGAUUUGUGGGAACAGACCUUCUUGUAAAUAACCACUAUUUGAGUUGUGGCAGCAACAGAGGAUUGAGCAUCA
B8: chr2:205796339:205796442:+|3pUTR|ENSG00000118257|msi1|FALSE|unique (ssRNA)
RNA: GGGAGUUCUACAGUCCGACGAUCAAGUCCGCAAGUACUGUGGACAAGAAUGCUUAACCAUGCUGCUUCAGCCUUGAGAGACCUAGGUUCUUACACAUAUGCACACACGCAUACACACAUGCACGCACACACACAUACACACAUCAACAGAGGAUUGAGCAUCA
B9: chr10:95311796:95311897:-|3pUTR|ENSG00000095637|unk|total|mutant (ssRNA)
RNA: GGGAGUUCUACAGUCCGACGAUCCAGACACCGAUUUUUCUGUUCAUUUAUUUUUCUUCAUUGCAGUGGAUUGAUUUGAUAAACCGAUGUGUUGAAUUACUACAUUUGCUGUACAUAUUAUUUAAUAAACUUUAUUCAGAAUUGCAACAGAGGAUUGAGCAUCA
B10: chr11:2944997:2945113:-|3pUTR|ENSG00000205531|unk|total|mutant (ssRNA)
RNA: GGGAGUUCUACAGUCCGACGAUCCUGUGCCGAGCCGGGCCCUGUUCUCCUCCGGAUGUUGCUUCUUGAUUUUUUUUUUUUUUCCGGGGUGGGUCAGGGUUGUGACACACCAGCCCAGGUGAGAGCUGCUGCGGGUCACCUCAUCAACAGAGGAUUGAGCAUCA
B11: chr9:26904889:26904990:-|3pUTR|ENSG00000137055|msi1|FALSE|bound_elsewhere (ssRNA)
RNA: GGGAGUUCUACAGUCCGACGAUCAUAAUUUCUUGAUUUGUCAUUUAUAAAUCCUAAAGUAUAUUUGUUUAAUGGCCUAUUUUUAGAUGAAGAAAAAGCCAGUUGGUAAGCUGUGUUAGUCAUGUAUCAGUUCAGACAGACGAGCAACAGAGGAUUGAGCAUCA
B12: chr2:46903092:46903222:-|3pUTR|ENSG00000180398|msi1|total|mutant (ssRNA)
RNA: GGGAGUUCUACAGUCCGACGAUCAAGCAGAAACCCCUGAUAAACUGAUCAGAUCUCAUGAGACUUAUUCACUGUCACGAGAACCGCACGGGAAAGACUGGCCCCCAUGAUUCAAUUACCUCCCCCUGGGUCUGUCCCACAACACAACAGAGGAUUGAGCAUCA
B13: chr6:35118271:35118501:-|CDS|ENSG00000124678|control|control|control (ssRNA)
RNA: GGGAGUUCUACAGUCCGACGAUCUCAGCGGAUCCAUUUGUUUCUCAAAUGCUGUUUGGUUCUUGGUGUGCAGCGGUCUCUAUUAGACCUUCCUGGAGGCCUUACUCUCAUUGAAGCAGAACUGGCAGAACUGGGCCAAAAGUUCAACAGAGGAUUGAGCAUCA
B14: chr6:121448137:121448244:+|3pUTR|ENSG00000152661|msi1|total|mutant (ssRNA)
RNA: GGGAGUUCUACAGUCCGACGAUCAUGAGGCUCCGAAAACACAAAGACAUCCGAAUACCCCGGUUCACUGGGGGUGUAUGGGGCCGAUGGGUGGAGAGGGAGGGGAUAAGAGAGGUGCAUGUUGGUAUUUAAAGCCGUGGAUUCCAACAGAGGAUUGAGCAUCA

The other results are listed elsewhere or left out.

The target of this experiment is T1, UNK ZnF1-6 (called full-length). The experiment can be described thus: nsRBNS (natural sequence RNA bind-n-seq); RBNS binding buffer (assumed for nsRBNS): 25 mM Tris pH 7.5, 150 mM KCl, 3 mM MgCl2, 0.01% Triton X-100, 500 ug/ml BSA, 20 U/ml SUPERase-In, 4 C; UNK is unkempt and MSI1 is Musashi-1; names of the RNAs are library labels; protein concentration not given here; high values mean tight binding.
In the case of B1, the binding signal amounted to 0.729 enrichment R.

Take B2: the binding signal was 0.493 enrichment R.

Molecule B3 yielded a binding signal of 0.867 enrichment R.

In turn, B4 returned a binding signal of 1.15 enrichment R.

Molecule B5 yielded a binding signal of 0.659 enrichment R.

Consider B6, for which the binding signal was 0.586 enrichment R.

B7 displayed a binding signal of 0.675 enrichment R.

Regarding B8, the binding signal came out at 0.729 enrichment R.

B9: the binding signal worked out at 1.16 enrichment R.

Molecule B10 showed a binding signal of 1.48 enrichment R.

With B11, the binding signal amounted to 0.839 enrichment R.

B12 yielded a binding signal of 0.776 enrichment R.

Molecule B13 came in with a binding signal of 0.597 enrichment R.

In the case of B14, the binding signal was found to be 1.76 enrichment R.
